Test results published in publication PMC12136788.
The list shows a part of the results.

B1: chr11:43405833:43405939:+|CDS|ENSG00000052841|unk|total|mutant (ssRNA)
RNA: GGGAGUUCUACAGUCCGACGAUCGGCCCAAACCCCUGACUGUUCCAUAACUGACUUCAGAAAAAGCCACACUCUGUCCUACUCCGUCAAAGAAUCCGAGGUUCGCAUGGAUCUGAAAGCCAAAAUGCCAGAUGACCAUGCACGCAACAGAGGAUUGAGCAUCA
B2: chr2:32415736:32415837:+|CDS|ENSG00000115760|unk|FALSE|unique (ssRNA)
RNA: GGGAGUUCUACAGUCCGACGAUCGCAGAGGAAUGUUAGUGGUGGAUAUUUAGUGCUUUAUAAAAUGAAUUAUGCCACUCGGAUAGUGACUUUAGAAGAGGAGCCAAUAAAAAUACAACAUAUCAAAGAUCCCCAGGACACAAUCAACAGAGGAUUGAGCAUCA
B3: chr12:109450965:109451066:-|3pUTR|ENSG00000110906|msi1|FALSE|unique (ssRNA)
RNA: GGGAGUUCUACAGUCCGACGAUCGCCCGGGCACAAUCCCCACUGCUUUGCUAGACGUGCUUUCUGCCAUGUGGCUUUGGGCCUAGAGCUUGUUGAUAAUUGCAGCUUGUGGCAGUGGAAAUAUGGCUGAAUGAGCGUCUAAAUCAACAGAGGAUUGAGCAUCA
B4: ENSG00000182118:stop:overlap|stop_codon|ENSG00000182118|stop_codon|NA|stop_codon (ssRNA)
RNA: GGGAGUUCUACAGUCCGACGAUCGGGACUUGUCACUGCCUGUCUCCUCCCUCUCCAGCAGCGACUGGAUUCUGGAGUCCAUCUAGAGGGUCUUGGGAGGGAUGUGACUGUUGGGAAGCCCUUCCUACUGGACACGCUGUCAUCCAACAGAGGAUUGAGCAUCA
B5: chr22:35606763:35607296:-|three_prime_utr|ENSG00000198125|control|control|control (ssRNA)
RNA: GGGAGUUCUACAGUCCGACGAUCGCUCCCACCCCCACCCAUCUGGGCCCCGGGUUCAAGAGAGAGCGGGGUCUGAUCUCGUGUAGCCAUAUAGAGUUUGCUUCUGAGUGUCUGCUUUGUUUAGUAGAGGUGGGCAGGAGGAGCCAACAGAGGAUUGAGCAUCA
B6: chr2:216675988:216676089:-|3pUTR|ENSG00000115461|msi1|total|mutant (ssRNA)
RNA: GGGAGUUCUACAGUCCGACGAUCACUAAAAUGCAUUCCAUUCCUCUGAAAGCAAAACAAAUUCAUAAUUGAGUGAUAUUAAACCGAGAGGUUUUCGGAAGCAGAUCUGUGAAUAUGAAAUACAUGUGCAUAUUUCAUUCCCCACAACAGAGGAUUGAGCAUCA
B7: chr5:37007335:37007444:+|CDS|ENSG00000164190|unk|total|mutant (ssRNA)
RNA: GGGAGUUCUACAGUCCGACGAUCAGGCUUAUUAAGUUCAAAAGCAAAACGGGCUAAAUGUUCUACCCAUAAGCAGAGAGUAACCGUAAUGCUUUAUAACAAAGUUUGUGACAUUGUCCGCAGCUUAUCAGAAUUGCCCGAGAUCAACAGAGGAUUGAGCAUCA
B8: ENSG00000198589:be:win_9451|3pUTR|ENSG00000198589|bound_else_gene|NA|bound_elsewhere_windowed (ssRNA)
RNA: GGGAGUUCUACAGUCCGACGAUCUUAAACUAUCAUCUCCACCUUCCUUUUGAUUAGCAAUUUGUACUAAGAAACGAAACAAUGUUAUUUGGUGGUGUAUAAUUCUACUUUUCUAGUAGAUUACUGUGUGGAAUUCUGUGAAAACAACAGAGGAUUGAGCAUCA
B9: chr5:72990507:72990614:+|CDS|ENSG00000157107|unk|FALSE|unique (ssRNA)
RNA: GGGAGUUCUACAGUCCGACGAUCGUAUGGGAUGUAUUCAAAACAUCUACAGAGAAAUUAGCAAAUUGUCACUUGGAUCUUGUUAGAAAAUUACAAGAAUUAAUAAAGGAAGUUCAGAAGUAUGGAGAAGAACAAGUAAAGUCUCAACAGAGGAUUGAGCAUCA
B10: ENSG00000198589:be:win_5001|CDS|ENSG00000198589|bound_else_gene|NA|bound_elsewhere_windowed (ssRNA)
RNA: GGGAGUUCUACAGUCCGACGAUCACCGUCAGUUUCAGUUUCAAAAAACGUCAAUGUGAAAGACAUUCUCCGAAGCUUGGUUAACAUACCAGCAGAUGGAGUCACAGUGGAUCCUGCCCUUCUGCCACCAGCCUGCCUUGGAGCCAACAGAGGAUUGAGCAUCA
B11: ENSG00000107863:be:win_701|CDS|ENSG00000107863|bound_else_gene|NA|bound_elsewhere_windowed (ssRNA)
RNA: GGGAGUUCUACAGUCCGACGAUCCACCAGUACUGACACAACCUGGUAGGGCCUAUAGAAUGGAAAUACAAGUGCCUCCAUCACCAACAGAUGUUGCAAAAUCAAACACAGCAGUGUGUGUUUGCAAUGAAAGUGUAAGGACUGCAACAGAGGAUUGAGCAUCA
B12: chr7:40094668:40094770:+|CDS|ENSG00000065883|unk|total|mutant (ssRNA)
RNA: GGGAGUUCUACAGUCCGACGAUCGGAUAUGGAGACAUUUACCUCAAUGCUGGUCCCAUGUUGUUCCGUGGAGACAAGGACCACCGAUUUGAAUACCGCCAUGGUCCUAUUGCAGUCCUGGCAAACAGCAGUGACCCUUCCACGCAACAGAGGAUUGAGCAUCA
B13: chr13:45969211:45969312:-|CDS|ENSG00000123200|unk|FALSE|unique (ssRNA)
RNA: GGGAGUUCUACAGUCCGACGAUCGUCCCUGACCGUACAGAGGUGACAGAAGCAGAGCAUACUGCCACCGCCACGACUCCUGGUAGUACCCCUUCUCCUCUAUCUUCUCUUCUUCCUCCUCCACCGCCUGUGGCUACUGCCACUCAACAGAGGAUUGAGCAUCA
B14: chr1:235113809:235113910:-|CDS|ENSG00000173726|msi1_unk|FALSE|overlapping (ssRNA)
RNA: GGGAGUUCUACAGUCCGACGAUCAGGCUUUUCAGGUUACAUGUAAUUUUAUGUAAAUCUUACAGGUGAAUAUGAGAAGGGCGUAGACCAUCUGACAAAUGCAAUUGCUGUGUGUGGACAGCCACAGCAGUUACUGCAGGUCUUCAACAGAGGAUUGAGCAUCA

biological target: MSI1 full-length (mouse, UniProt Q61474 1-362); experiment: nsRBNS (natural sequence RNA bind-n-seq); RBNS binding buffer (assumed for nsRBNS): 25 mM Tris pH 7.5, 150 mM KCl, 3 mM MgCl2, 0.01% Triton X-100, 500 ug/ml BSA, 20 U/ml SUPERase-In, 4 C; UNK is unkempt and MSI1 is Musashi-1; names of the RNAs are library labels; protein concentration not given here; high values mean tight binding
Chain of UniProt Q61474 (Q61474 whole entry): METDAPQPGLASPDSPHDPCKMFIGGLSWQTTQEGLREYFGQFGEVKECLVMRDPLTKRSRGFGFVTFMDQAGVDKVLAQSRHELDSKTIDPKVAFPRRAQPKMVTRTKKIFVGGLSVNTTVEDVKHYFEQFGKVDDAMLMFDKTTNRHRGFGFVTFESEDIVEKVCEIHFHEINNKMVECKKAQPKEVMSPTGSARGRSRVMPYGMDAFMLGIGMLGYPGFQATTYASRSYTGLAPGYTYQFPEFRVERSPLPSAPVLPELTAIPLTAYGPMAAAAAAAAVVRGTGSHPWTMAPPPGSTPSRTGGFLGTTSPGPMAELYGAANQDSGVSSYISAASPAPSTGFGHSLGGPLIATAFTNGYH

Binder	binding signal [enrichment R]
B1	0.275
B2	2.04
B3	0.433
B4	0.542
B5	1.64
B6	0.271
B7	0.305
B8	1.55
B9	9.04
B10	0.331
B11	0.502
B12	0.291
B13	1.07
B14	0.3
